Measured values: publication PMC4336329 (PLoS ONE, 2015)
Hit rate of the full screen: of about 310,000 compounds, about 2,200 (0.71%) showed an effect of 50% or more. Effects have a minus sign here. This is one part of the list.

What follows are compounds tested against human ether-à-go-go-related gene (hERG) potassium channel (human, UniProt Q12809) (assay: primary screen, population patch clamp on CHO cells stably expressing hERG).
Chain of human ether-à-go-go-related gene (hERG) potassium channel (Q12809 whole entry, looked up): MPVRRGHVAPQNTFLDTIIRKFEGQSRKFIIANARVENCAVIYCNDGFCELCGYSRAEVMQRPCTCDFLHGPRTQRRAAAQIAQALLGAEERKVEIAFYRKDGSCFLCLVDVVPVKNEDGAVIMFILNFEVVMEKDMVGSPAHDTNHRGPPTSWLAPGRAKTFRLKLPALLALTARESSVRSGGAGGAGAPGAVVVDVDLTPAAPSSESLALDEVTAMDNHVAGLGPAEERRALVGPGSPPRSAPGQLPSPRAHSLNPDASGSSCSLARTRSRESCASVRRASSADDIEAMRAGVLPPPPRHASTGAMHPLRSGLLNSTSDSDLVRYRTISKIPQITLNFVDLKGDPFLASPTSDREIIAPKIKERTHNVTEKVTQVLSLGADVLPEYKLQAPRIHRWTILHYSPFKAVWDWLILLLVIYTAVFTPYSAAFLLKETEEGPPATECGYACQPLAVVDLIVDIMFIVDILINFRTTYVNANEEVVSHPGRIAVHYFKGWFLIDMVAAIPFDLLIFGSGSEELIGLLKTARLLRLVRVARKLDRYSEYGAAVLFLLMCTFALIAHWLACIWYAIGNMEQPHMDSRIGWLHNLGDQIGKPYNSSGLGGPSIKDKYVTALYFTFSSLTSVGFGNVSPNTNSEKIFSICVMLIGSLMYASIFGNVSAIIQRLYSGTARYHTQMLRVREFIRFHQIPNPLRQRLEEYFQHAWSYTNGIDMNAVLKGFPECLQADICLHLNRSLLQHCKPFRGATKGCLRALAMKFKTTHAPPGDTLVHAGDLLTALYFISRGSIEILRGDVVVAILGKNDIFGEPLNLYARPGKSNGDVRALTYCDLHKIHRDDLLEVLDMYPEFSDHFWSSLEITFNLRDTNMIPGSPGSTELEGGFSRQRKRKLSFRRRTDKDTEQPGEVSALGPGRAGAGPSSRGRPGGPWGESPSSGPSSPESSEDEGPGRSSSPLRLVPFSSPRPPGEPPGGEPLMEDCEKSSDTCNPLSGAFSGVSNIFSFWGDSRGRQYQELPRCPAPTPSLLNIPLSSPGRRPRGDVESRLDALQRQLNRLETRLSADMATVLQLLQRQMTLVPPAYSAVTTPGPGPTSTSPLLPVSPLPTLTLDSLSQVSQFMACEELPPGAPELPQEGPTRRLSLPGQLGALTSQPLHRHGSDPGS

SMILES	hERG current change (%, negative = inhibition) at 1uM [%]
Cc1cc(C)n(-c2cccc(CN3CCC(CO)(Cc4ccccc4)CC3)c2)n1	-5.38
Cc1ccc(S(=O)(=O)NC(C)(C)CSc2ncccn2)cc1	10.8
O=C(CNC(=O)c1ccco1)N=Nc1c(O)[nH]c2ccc([N+](=O)[O-])cc12	12.5
CC(=O)Nc1ccc(S(=O)(=O)NCCC(=O)NNC(=O)c2ccncc2)cc1	8.41
COc1ccc(/C=C/C(=O)O)cc1S(=O)(=O)NCc1ccco1	12.2
CCN(CC)C(=O)c1ccc2c3c(cccc13)C(=O)N(CCc1ccc(OC)c(OC)c1)C2=O	-0.216
Cc1ccc2c(c1)N(C(=O)CCC(=O)N1CCOCC1)CC(C)O2 (stereo not shown)	13.5
Cc1ccc(S(=O)(=O)NCC(=O)NCC(=O)OC(C(=O)NC(N)=O)C(C)C)cc1C (stereo not shown)	13.7
COc1ccc(Cl)cc1NC(=O)CCNC(=O)OCc1ccccc1	1.38
CCOC(=O)CSc1nc2ccc(NC(=O)CSc3nnnn3Cc3ccccc3)cc2s1	16.7
COc1cc(CN2C(=O)C(NC(=O)c3ccco3)(C(F)(F)F)C3=C2CC(C)(C)CC3=O)cc(OC)c1 (stereo not shown)	7.6
COc1cc(C(=O)NCCC(c2ccccc2)c2ccccc2)cc(OC)c1OC	8.82
O=C(CCNC(=O)c1ccccc1)N/N=C/c1ccc([N+](=O)[O-])cc1	2.5
COc1cc(OC)cc(C(=O)NCCCn2ccnc2)c1	18.8
Cc1ccc(OCc2nnc(N)s2)cc1	17
Cc1cccc(NC(=O)C2NC(=O)CC2c2ccccc2)c1C (stereo not shown)	7.2
CCOC(=O)C1(Cc2ccccc2)CCN(Cc2csc(C(C)=O)c2)CC1	7
CC(NC(=O)C1CCCN1S(=O)(=O)c1ccc2c(c1)n(C)c(=O)c(=O)n2C)c1ccccc1 (stereo not shown)	13.8
O=C(COC(=O)c1cc[n+]([O-])cc1)Nc1ccc(Cl)cc1C(F)(F)F	19.1
CC(=O)/C(C(=N)N1CCN(c2cccc(Cl)c2)CC1)=C(\C)O	4.02
O=S(=O)(c1cccs1)N1CN(C2CCCC2)c2nc3ccccc3nc21	5.99
COc1ccc(F)c(CN2CCN(CCc3ccccc3)C(CCO)C2)c1 (stereo not shown)	4.05

SMILES	hERG current change (%, negative = inhibition) at 1uM [%]
CCC(C)N(C(=O)c1csnn1)C(C(=O)NCc1ccc(F)cc1)c1ccco1 (stereo not shown)	-10.4
Cc1ccc(NC(=O)CN2CCOCC2)cc1C	12.7
CSc1nc2ccc(N3C(=O)C4CCCCC4C3=O)cc2s1 (stereo not shown)	-1.65
CON/C=C(\C=Nc1ccccc1)c1ncc(C(F)(F)F)cc1Cl	8.6
COc1ccc(C2NC(=O)NC(C)=C2C(=O)OC2CCCC(C)C2)cc1 (stereo not shown)	9.22
O=C(NCCOc1ccccc1)C1CCCN1C(=O)c1cccs1 (stereo not shown)	12.8
O=C(NCC1CCCO1)c1ccc(COc2ccccc2)o1 (stereo not shown)	-8.81
CS(=O)(=O)NCc1csc(-c2ccccc2)n1	8.19
CCOc1ccc(NC(=O)c2ccccc2CO)cc1	11.2
C/C(=N\NC(=O)COc1ccc(C)cc1C(C)C)c1ccc(-n2ccnc2)cc1	4.88
CCC(C)NC(=O)c1ccccc1NC(=O)CN(c1cc(C)ccc1OC)S(C)(=O)=O (stereo not shown)	5.63
Clc1cccc(N2CCNCC2)n1	11.5
COc1ccc(Nc2nc(N)nc(CSC(=S)N3CCN(c4ccccc4)CC3)n2)cc1	8.12
COc1ccc(CCN=C(C)C2=C(O)C(c3ccccc3)OC2=O)cc1OC (stereo not shown)	2.95
NC(=O)CSc1nnc(CNc2ccc(F)cc2)n1CC1CCCO1 (stereo not shown)	-1.77
CC(C)N(C#N)c1nc(N2CCOCC2)nc(N2CCOCC2)n1	0.297
CCCCn1c(/N=C/c2c[nH]c3ccccc23)nc2ccccc21	11.4
O=C(c1ccc(NC2=NC3CS(=O)(=O)CC3S2)cc1)N1CCN(Cc2ccccc2)CC1 (stereo not shown)	3.9
CC1(C)CC(=O)C2=C(C1)Nc1ccccc1NC2c1cccc(F)c1 (stereo not shown)	9.12
COCCN(CCOC)S(=O)(=O)c1ccc(C(=O)Nc2nc(C)c(C(C)=O)s2)cc1	13.7
CCOC(=O)Cc1csc(SCC(=O)Nc2cccc(Cl)c2)n1	11.3
